Source: publication PMC4336329 (PLoS ONE, 2015)
About 14,000 (4.5%) of roughly 310,000 compounds showed an effect of 50% or more. Effects have a minus sign here. The list shows a part of the results.

Target: human ether-à-go-go-related gene (hERG) potassium channel (human, UniProt Q12809)
Test: primary screen, population patch clamp on CHO cells stably expressing hERG
Protocol: Briefly, Chinese hamster ovary (CHO) cells stably expressing the hERG channel were dislodged from tissue culture flasks and dispensed into PPC plates. […] During the recording, background leak currents were estimated by a 100 ms step to -80 mV from an initial holding potential of -70 mV and subtracted from the subsequent current measurement. The campaign was conducted in two phases using slight differences in recording protocol. In the first phase, the initial voltage pulse used a 100 ms step to -30 mV from a holding potential of -70 mV, a 2 s conditioning step to +25 mV, and a 2 s test step to -30 mV. During the second phase of the screen, the potential during the conditioning step was raised to +45 mV. In both phases of the campaign, a secondary voltage pulse was applied using the same parameters as the second phase initial pulse. The initial and secondary pulses were applied in the absence of compound, and upon application of 1 μM and 10 μM test concentrations. […]
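Note: peak tail current of the secondary pulse compared with the same well before compound.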

Chain of human ether-à-go-go-related gene (hERG) potassium channel (Q12809 whole entry, looked up): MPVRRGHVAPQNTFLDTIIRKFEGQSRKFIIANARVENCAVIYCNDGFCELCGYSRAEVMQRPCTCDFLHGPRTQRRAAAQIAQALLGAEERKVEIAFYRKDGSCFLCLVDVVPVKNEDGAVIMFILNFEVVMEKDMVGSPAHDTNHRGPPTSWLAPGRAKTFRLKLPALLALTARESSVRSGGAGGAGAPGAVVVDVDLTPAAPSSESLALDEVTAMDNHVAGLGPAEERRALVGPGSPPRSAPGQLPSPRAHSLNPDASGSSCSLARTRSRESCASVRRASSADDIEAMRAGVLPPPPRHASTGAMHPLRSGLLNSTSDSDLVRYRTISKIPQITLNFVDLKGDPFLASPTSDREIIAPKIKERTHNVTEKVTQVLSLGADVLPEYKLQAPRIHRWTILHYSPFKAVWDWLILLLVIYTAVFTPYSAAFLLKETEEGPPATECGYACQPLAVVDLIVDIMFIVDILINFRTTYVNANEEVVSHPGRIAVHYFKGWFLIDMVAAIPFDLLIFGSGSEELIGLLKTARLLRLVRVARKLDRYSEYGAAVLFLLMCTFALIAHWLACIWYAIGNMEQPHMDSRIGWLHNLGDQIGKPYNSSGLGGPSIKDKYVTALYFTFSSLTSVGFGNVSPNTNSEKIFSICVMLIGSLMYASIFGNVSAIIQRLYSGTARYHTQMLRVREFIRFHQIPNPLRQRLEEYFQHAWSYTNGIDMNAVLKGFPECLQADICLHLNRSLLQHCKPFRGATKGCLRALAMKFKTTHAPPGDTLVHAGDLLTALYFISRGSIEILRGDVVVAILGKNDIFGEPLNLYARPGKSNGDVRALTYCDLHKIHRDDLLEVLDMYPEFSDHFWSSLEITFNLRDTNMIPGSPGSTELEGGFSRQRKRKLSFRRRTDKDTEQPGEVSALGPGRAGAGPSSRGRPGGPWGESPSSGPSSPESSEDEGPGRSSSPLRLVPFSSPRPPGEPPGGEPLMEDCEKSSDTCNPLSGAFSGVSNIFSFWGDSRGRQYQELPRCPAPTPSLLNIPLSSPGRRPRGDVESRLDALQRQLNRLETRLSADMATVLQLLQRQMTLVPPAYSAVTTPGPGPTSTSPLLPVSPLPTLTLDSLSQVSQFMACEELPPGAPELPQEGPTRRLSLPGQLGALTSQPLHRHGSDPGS

First: Cc1nc(SCc2ccccc2C#N)n[nH]1
Second: O=C(CSc1n[nH]c(-c2cccs2)n1)N1CCN(S(=O)(=O)c2ccccc2)CC1
The “hERG current change (%, negative = inhibition) at 10uM” value of the first is higher: 23.4% for the first, 1.6% for the second.

Compared with `CCCCc1nnc(NC(=O)C(C)Sc2nc(C)cc(=O)[nH]2)s1` (stereo not drawn), `COC(=O)Nc1nnc(CC(=O)Nc2ccccc2C)s1` is lower in “hERG current change (%, negative = inhibition) at 10uM” value: -7.17% for the first, -36.5% for the second.

Going from `Cc1cc2oc(=O)cc(Cn3nnc(-c4ccc(Cl)cc4)n3)c2cc1C(C)C` to `CCOc1ccc(-c2nnn(CC(=O)NCc3ccccc3)n2)cc1`, the “hERG current change (%, negative = inhibition) at 10uM” value rises from 10.2% to 24.4%.

First: Cc1cccc(NC(=O)CO/N=C/c2ccc3c(c2)OCO3)c1
Second: CCOc1ccccc1NC(=O)COc1ccc2c(c1)OCO2
The “hERG current change (%, negative = inhibition) at 10uM” value of the first is lower: -10.7% for the first, 16.3% for the second.

First: O=C(COc1ccccc1)NNc1nc2c(F)cccc2s1
Second: CCC(=O)NC(=S)Nc1ccc(NC(=O)COc2ccccc2)cc1
The “hERG current change (%, negative = inhibition) at 10uM” value of the first is higher: 32.6% for the first, 17.5% for the second.

Going from `CC1CCN(c2cc(N3CCOCC3)c([N+](=O)[O-])cc2F)CC1` to `CCCC(=O)c1ccc(N2CCCCC2)c(F)c1`, the “hERG current change (%, negative = inhibition) at 10uM” value rises from -10.3% to 10.5%.

Compared with `Cc1cc(=O)n2nc(N3CCC(C(=O)Nc4cccc(Cl)c4C)CC3)sc2n1`, `Cc1nc(NC(=O)C2CC2)sc1C(=O)Nc1ccccc1Cl` is higher in “hERG current change (%, negative = inhibition) at 10uM” value: -10.1% for the first, 21.3% for the second.

Going from `Cl.Fc1ccc(COc2cccc(CNCc3ccncc3)c2)cc1` to `COc1cc(CNCc2ccc(C(=O)O)cc2)ccc1OCc1ccc(F)cc1.Cl`, the “hERG current change (%, negative = inhibition) at 10uM” value rises from -40.6% to 19.6%.

Going from `Cl.Cn1c(=O)c2c(nc(N3CCOCC3)n2CCCNC2=NCCCCC2)n(C)c1=O` to `CCn1c(SCC(=O)N2CCN(C)CC2)nc2c1c(=O)n(C)c(=O)n2C`, the “hERG current change (%, negative = inhibition) at 10uM” value falls from 10.5% to 3.83%.

Going from `CN(C)c1ccc(/C=N/NC(=O)c2ccccn2)cc1` to `CCOc1ccc(C(=O)N/N=C(\c2ccccc2)c2ccccn2)cc1`, the “hERG current change (%, negative = inhibition) at 10uM” value falls from 9.64% to -27%.

Going from `CCCNC(=O)COCc1cc(-c2ccc3c(c2)OCO3)on1` to `O=C(/C=C/c1ccco1)Nc1ccc2c(c1)OCCO2`, the “hERG current change (%, negative = inhibition) at 10uM” value rises from 0.0175% to 19.4%.

First: C[N+](C)(C)CCCN1C(=O)CCCC1=O.[I-]
Second: CC(=O)Cn1c(=O)c2c(nc3n2CCCN3Cc2ccccc2)n(C)c1=O
The “hERG current change (%, negative = inhibition) at 10uM” value of the first is higher: 17.1% for the first, -7.99% for the second.

First: CCN(CC)S(=O)(=O)c1cc(F)ccc1OC
Second: CCN(C(=O)Cc1c(C(=O)O)[nH]c2ccccc12)c1cc(OC)ccc1OC
The “hERG current change (%, negative = inhibition) at 10uM” value of the first is lower: -10.8% for the first, 1.38% for the second.

Compared with `O=C1CC2(CCCCC2)Oc2ccc(Cl)cc21`, `O=C(CNCc1cccs1)Nc1cc(S(=O)(=O)N2CCCC2)ccc1Cl` is lower in “hERG current change (%, negative = inhibition) at 10uM” value: 1.26% for the first, -52% for the second.

Going from `Cc1ccccc1C(=O)c1cccn1CC(=O)NCC1CCCO1` (stereo not drawn) to `CCOC(=O)C1CCCN(C(=O)c2cccc3ccccc23)C1` (stereo not drawn), the “hERG current change (%, negative = inhibition) at 10uM” value rises from 4.58% to 4.99%.

Compared with `Cc1cc(C)c2sc(N(CCN(C)C)C(=O)c3cc(Cl)sc3Cl)nc2c1.Cl`, `Cc1ccc(N2C(=O)c3ccc(C(=O)O)cc3C2=O)c(C)c1` is higher in “hERG current change (%, negative = inhibition) at 10uM” value: 9.32% for the first, 15.3% for the second.

Going from `COc1ccc(CCNC(=O)CCn2c(=O)oc3ccccc32)cc1OC` to `COc1ccc(Cl)cc1NC(=O)CCN1CCN(Cc2ccccc2)CC1`, the “hERG current change (%, negative = inhibition) at 10uM” value falls from 6.52% to -64.6%.

Compared with `O=C(NC1CCNCC1)C1CC1`, `O=C(NC1CCCC1)C(c1ccccc1)N(C(=O)c1ccco1)C1CCCC1` (stereo not drawn) is lower in “hERG current change (%, negative = inhibition) at 10uM” value: 20.1% for the first, -3.48% for the second.

Going from `O=c1c2cc(-c3ccccc3)sc2nc2n1CCC2` to `O=C(CN1CCC(c2nc3ccccc3s2)CC1)NCc1ccccc1`, the “hERG current change (%, negative = inhibition) at 10uM” value falls from 6.9% to -67.5%.

Compared with `COP(=O)(CN(Cc1ccccc1)C(=S)Nc1c(C)cccc1C)OC`, `Cc1ccc(OCC(=O)Nc2cccc(-c3nnc(-c4ccccc4)o3)c2)c(C)c1` is lower in “hERG current change (%, negative = inhibition) at 10uM” value: 46.9% for the first, -7.48% for the second.

First: Cc1ccc(C(C(=O)NC(C)(C)C)N(CC2CCCO2)C(=O)CCC(=O)Nc2ccccn2)cc1 (stereo not drawn)
Second: CCOc1ccccc1NC(=O)C(OC(=O)c1ccccc1)c1ccccc1 (stereo not drawn)
The “hERG current change (%, negative = inhibition) at 10uM” value of the first is lower: 13.7% for the first, 26.1% for the second.

First: CC(NC(=S)NC(=O)c1ccccc1)c1ccccc1 (stereo not drawn)
Second: O=C(NC(=S)Nc1ccc(Br)cn1)c1cccnc1
The “hERG current change (%, negative = inhibition) at 10uM” value of the first is lower: -3.34% for the first, 12.7% for the second.

Compared with `O=C(Nc1ccc([N+](=O)[O-])cc1)/C(=C/c1cccc([N+](=O)[O-])c1)NC(=O)C1CCCCC1`, `Cc1nn(CCC#N)c(NC(=O)c2ccc(Cl)cc2Cl)c1P(=O)(Nc1ccc([N+](=O)[O-])cc1)N1CCOCC1` (stereo not drawn) is higher in “hERG current change (%, negative = inhibition) at 10uM” value: -69% for the first, -12.6% for the second.

Going from `Cl.O=C1CC[C@@]2(O)[C@H]3Cc4ccc(O)c5c4[C@@]2(CCN3CC2CC2)[C@H]1O5` to `Cc1ccccc1NC(=O)C1CCN(S(=O)(=O)c2cccc3nonc23)CC1`, the “hERG current change (%, negative = inhibition) at 10uM” value rises from 0.91% to 1.67%.

First: CCn1c(CC(=O)Nc2ccc(F)cc2)nnc1SCC(=O)Nc1nnc(C)s1
Second: CCOc1ccccc1Nc1nnc(SCC(=O)Nc2nc(-c3ccc(OC)cc3)cs2)s1
The “hERG current change (%, negative = inhibition) at 10uM” value of the first is higher: 15.6% for the first, 3.33% for the second.

First: COc1ccc(NC(=O)NC(C)(C(F)(F)F)C(F)(F)F)cc1
Second: CCN(CC(=O)Nc1ccc(OC)cc1)C(=O)c1ccc2c(c1)NC(=O)C(C)S2 (stereo not drawn)
The “hERG current change (%, negative = inhibition) at 10uM” value of the first is higher: 9.59% for the first, -10.5% for the second.

Compared with `c1ccc(OCCOc2ncnc3sccc23)cc1`, `CSc1ccc(Cn2nnc(C(=O)NCc3ccccc3)c2N)cc1` is lower in “hERG current change (%, negative = inhibition) at 10uM” value: 3.89% for the first, -0.141% for the second.

First: CCCc1cc(NCc2ccccn2)n2nc(C)c(-c3ccccc3)c2n1
Second: CCOC(=O)Cn1c(CN(Cc2ccccc2)Cc2ccccc2)nc2c1c(=O)n(C)c(=O)n2C
The “hERG current change (%, negative = inhibition) at 10uM” value of the first is higher: 4.77% for the first, -31.7% for the second.

Going from `COC(=O)c1ccccc1NC(=O)N1CCN(C(=O)c2ccco2)CC1` to `CC(=O)N1CCN(C(=O)CSc2nc3c(cnn3-c3ccccc3)c(=O)[nH]2)CC1`, the “hERG current change (%, negative = inhibition) at 10uM” value rises from -25% to -9.1%.

Going from `COCCCn1c(SCC(=O)N2CCc3ccccc32)nnc1-c1ccoc1C` to `COc1ccccc1N1CCN(C(=O)CCCN2C(=O)c3cccc4cccc(c34)C2=O)CC1.Cl`, the “hERG current change (%, negative = inhibition) at 10uM” value falls from -14.9% to -70.9%.

First: COC(=O)c1cc(F)c(-n2cncn2)c(F)c1
Second: C=CCn1c(=NC(=O)c2cccs2)sc2cc(NC(C)=O)ccc21
The “hERG current change (%, negative = inhibition) at 10uM” value of the first is lower: -6.25% for the first, 8.25% for the second.

Going from `CC(C)C(=O)Nc1ncc(C(F)(F)F)cc1Cl` to `COc1cc(/C=C(\C#N)C(=O)Nc2cc(C(F)(F)F)ccc2Cl)ccc1OCC(=O)Nc1cccc(C(F)(F)F)c1`, the “hERG current change (%, negative = inhibition) at 10uM” value falls from 23.1% to 12%.

Compared with `O=C(CNC(=O)c1cccc(Cl)c1)NCC(c1cccs1)N1CCOCC1` (stereo not drawn), `O=C(NCc1cccs1)c1cccnc1Cl` is higher in “hERG current change (%, negative = inhibition) at 10uM” value: -13.9% for the first, 2.74% for the second.

First: COC(=O)[C@@]12CCCCN1[C@H](c1ccc(-c3cc(C(C)=O)cs3)cc1)[C@H]1C(=O)N(C)C(=O)[C@H]12.O=C(O)C(F)(F)F
Second: COc1ccc(Br)cc1CN1CCN(C(=O)c2ccc(F)cc2)CC1.O=C(O)C(=O)O
The “hERG current change (%, negative = inhibition) at 10uM” value of the first is higher: 9.06% for the first, -13.3% for the second.

First: CC(=O)N1CC=C2C(C#N)=C(N)C(C#N)(C#N)C(C)C2C1 (stereo not drawn)
Second: O=C(O)C1CC(=O)N(c2ccc(F)cc2)C1 (stereo not drawn)
The “hERG current change (%, negative = inhibition) at 10uM” value of the first is lower: 11.9% for the first, 14.1% for the second.

Compared with `CSc1ccccc1NC(=O)CN(C)C(=O)c1cccc(S(=O)(=O)N(C)C)c1`, `Cc1ccc(S(=O)(=O)N(C)C)cc1NS(=O)(=O)c1ccc(Cl)s1` is higher in “hERG current change (%, negative = inhibition) at 10uM” value: 8.78% for the first, 9.15% for the second.

Going from `CCOC(=O)C(=CNCC(=O)OC)C(=O)OCC` to `COCC(=O)Oc1c(S(=O)(=O)c2ccc(C)cc2)c(C)nn1C(C)(C)C`, the “hERG current change (%, negative = inhibition) at 10uM” value rises from 10.7% to 16.7%.

First: CS(=O)(=O)NC1c2cccc3cccc(c23)C1Sc1nncn1/N=C/c1ccco1 (stereo not drawn)
Second: CC(C)(C)C1(C)OC(=O)C(=Cc2ccc(OCC(=O)Nc3ccccc3)cc2)C(=O)O1 (stereo not drawn)
The “hERG current change (%, negative = inhibition) at 10uM” value of the first is lower: -21.1% for the first, -15.5% for the second.

First: CN(CCNC(=O)CCNC(=O)Cn1ccc2ccccc2c1=O)Cc1ccccc1
Second: C=CCNC(=O)c1c2c(nc3ccccc13)-c1ccccc1CC2
The “hERG current change (%, negative = inhibition) at 10uM” value of the first is higher: 0.657% for the first, -46.4% for the second.

Going from `O=C(O)Cc1ccc(Nc2cnn(C34CC5CC(CC(CC(=O)O)(C5)C3)C4)c(=O)c2Cl)cc1` to `Cc1cc(C)nc(-n2nc(C)cc2NC(=O)c2ccc(S(=O)(=O)N3CCOCC3)cc2)n1`, the “hERG current change (%, negative = inhibition) at 10uM” value falls from 6.78% to -9.21%.

Going from `Cn1ccc(CC(=O)N2CCC(N3CCC(C(=O)N4CCCC4)CC3)CC2)c1` to `CN(C(=O)CSc1nnc(-c2ccncc2)n1C)C1CCS(=O)(=O)C1` (stereo not drawn), the “hERG current change (%, negative = inhibition) at 10uM” value rises from -9.36% to 8.82%.

First: CCCCN(Cc1cccs1)S(=O)(=O)c1csc(C(N)=O)c1
Second: COCCN(CCOC)S(=O)(=O)c1ccc(NC(=O)c2cnccn2)cc1
The “hERG current change (%, negative = inhibition) at 10uM” value of the first is lower: -34.8% for the first, 13.1% for the second.

Going from `O=C(Nc1ccccc1)ON=C1CCCC1` to `Cn1c2c(c(=O)n(C)c1=O)C(C(F)(F)F)(C(F)(F)F)N=C(c1ccccc1Cl)N2`, the “hERG current change (%, negative = inhibition) at 10uM” value rises from -17.9% to 21.8%.

In the case of `CCOc1cc(C2NC(=O)N(C)C(C)=C2[N+](=O)[O-])ccc1OC(C)=O` (stereo not drawn), the “hERG current change (%, negative = inhibition) at 10uM” value is reported as 18.7%.
